# Source: the supplement of paper PMC8728848
# This is one part of the list.
# B1: Regenerating Gene I (Homo sapiens), P05451 (protein)
# chain: MAQTSSYFMLISCLMFLSQSQGQEAQTELPQARISCPEGTNAYRSYCYYFNEDRETWVDADLYCQNMNSGNLVSVLTQAEGAFVASLIKESGTDDFNVWIGLHDPKKNRRWHWSSGSLVSYKSWGIGAPSSVNPGYCVSLTSSTGFQKWKDVPCEDKFSFVCKFKN
# What was measured:
# Test in all cases: glycan array binding signal (z-score within array); higher = stronger binding
# Conditions in all cases: glycan notation: IUPAC condensed, linker removed
# [1] = target: Fuc(a1-2)[GalNAc(a1-3)]Gal(b1-4)[Fuc(a1-3)]GlcNAc
# Procedure, shortened: (§1)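 The binding signal is a Z-score computed within each array. Data were drawn from 3228 arrays in the Consortium for Functional Glycomics database, restricted to those with a known protein sequence. Scores were averaged over arrays of the same protein sequence at different concentrations or buffers, and over linkers, and negative values can be taken as non-binding.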
# [2] = target: Fuc(a1-2)[GalNAc(a1-4)]Gal(b1-4)GlcNAc
# Procedure, shortened: as §1
# [3] = target: Fuc(a1-2)[GalNAc(b1-3)]Gal
# Procedure, shortened: as §1
# Fuc(a1-3)GlcNAc = target: Fuc(a1-3)GlcNAc
# Procedure, shortened: as §1
# [4] = target: Fuc(a1-3)[Gal(b1-4)]Glc6S
# Procedure, shortened: as §1
# [5] = target: Fuc(a1-3)[Gal(b1-4)]GlcNAc
# Procedure, shortened: as §1
# [6] = target: Fuc(a1-3)[Gal(b1-4)]GlcNAc(b1-2)Man(a1-3)[Fuc(a1-3)[Gal(b1-4)]GlcNAc(b1-2)Man(a1-6)]Man(b1-4)GlcNAc(b1-4)GlcNAc
# Procedure, shortened: as §1
# [7] = target: Fuc(a1-3)[Gal(b1-4)]GlcNAc(b1-2)Man(a1-6)[Gal(b1-4)GlcNAc(b1-2)Man(a1-3)]Man(b1-4)GlcNAc(b1-4)GlcNAc
# Procedure, shortened: as §1
# [8] = target: Fuc(a1-3)[Gal(b1-4)]GlcNAc(b1-3)Gal(b1-3)[Fuc(a1-4)]GlcNAc
# Procedure, shortened: as §1
# [9] = target: Fuc(a1-3)[Gal(b1-4)]GlcNAc(b1-4)Gal(b1-4)[Fuc(a1-3)]GlcNAc
# Procedure, shortened: as §1
# [10] = target: Fuc(a1-3)[Gal(b1-4)]GlcNAc(b1-4)Gal(b1-4)[Fuc(a1-3)]GlcNAc(b1-4)Gal(b1-4)[Fuc(a1-3)]GlcNAc
# Procedure, shortened: as §1
# [11] = target: Fuc(a1-3)[Gal(b1-4)]GlcNAc6S
# Procedure, shortened: as §1
# [12] = target: Fuc(a1-3)[Gal3S(b1-4)]Glc6S
# Procedure, shortened: as §1
# [13] = target: Fuc(a1-3)[Gal3S(b1-4)]GlcNAc
# Procedure, shortened: as §1
# [14] = target: Fuc(a1-3)[Gal3S(b1-4)]GlcNAc6S
# Procedure, shortened: as §1
# [15] = target: Fuc(a1-3)[GalNAc(b1-4)]GlcNAc
# Procedure, shortened: as §1
# Fuc(a1-4)GlcNAc = target: Fuc(a1-4)GlcNAc
# Procedure, shortened: as §1
# Fuc(b1-3)GlcNAc = target: Fuc(b1-3)GlcNAc
# Procedure, shortened: as §1
# Gal(a1-2)Gal = target: Gal(a1-2)Gal
# Procedure, shortened: as §1
# Gal(a1-3)Gal = target: Gal(a1-3)Gal
# Procedure, shortened: as §1
# Gal(a1-3)Gal(b1-3)GlcNAc = target: Gal(a1-3)Gal(b1-3)GlcNAc
# Procedure, shortened: as §1
# Gal(a1-3)Gal(b1-4)Glc = target: Gal(a1-3)Gal(b1-4)Glc
# Procedure, shortened: as §1
# Gal(a1-3)Gal(b1-4)GlcNAc = target: Gal(a1-3)Gal(b1-4)GlcNAc
# Procedure, shortened: as §1
# [16] = target: Gal(a1-3)Gal(b1-4)[Fuc(a1-3)]GlcNAc
# Procedure, shortened: as §1
# Gal(a1-3)GalNAc = target: Gal(a1-3)GalNAc
# Procedure, shortened: as §1
# [17] = target: Gal(a1-3)[Gal(a1-4)]Gal(b1-4)GlcNAc
# Procedure, shortened: as §1
# Gal(a1-4)Gal(b1-4)Glc = target: Gal(a1-4)Gal(b1-4)Glc
# Procedure, shortened: as §1
# Gal(a1-4)Gal(b1-4)GlcNAc = target: Gal(a1-4)Gal(b1-4)GlcNAc
# Procedure, shortened: as §1
# Gal(a1-4)GlcNAc = target: Gal(a1-4)GlcNAc
# Procedure, shortened: as §1
# Gal(a1-6)Glc = target: Gal(a1-6)Glc
# Procedure, shortened: as §1
# Gal(b1-2)Gal = target: Gal(b1-2)Gal
# Procedure, shortened: as §1
# Gal(b1-3)Gal = target: Gal(b1-3)Gal
# Procedure, shortened: as §1
# Gal(b1-3)Gal(b1-4)GlcNAc = target: Gal(b1-3)Gal(b1-4)GlcNAc
# Procedure, shortened: as §1
# Gal(b1-3)GalNAc = target: Gal(b1-3)GalNAc
# Procedure, shortened: as §1
# [18] = target: Gal(b1-3)GalNAc(b1-3)Gal(a1-4)Gal(b1-4)Glc
# Procedure, shortened: as §1
# [19] = target: Gal(b1-3)GalNAc(b1-4)Gal(b1-4)Glc
# Procedure, shortened: as §1
# [20] = target: Gal(b1-3)GalNAc(b1-4)[Neu5Ac(a2-3)]Gal(b1-4)Glc
# Procedure, shortened: as §1
# Gal(b1-3)GlcNAc = target: Gal(b1-3)GlcNAc
# Procedure, shortened: as §1
# [21] = target: Gal(b1-3)GlcNAc(b1-2)Man(a1-3)[Gal(b1-3)GlcNAc(b1-2)Man(a1-6)]Man(b1-4)GlcNAc(b1-4)GlcNAc
# Procedure, shortened: as §1
# [22] = target: Gal(b1-3)GlcNAc(b1-3)Gal(b1-3)GlcNAc
# Procedure, shortened: as §1
# [23] = target: Gal(b1-3)GlcNAc(b1-3)Gal(b1-4)Glc
# Procedure, shortened: as §1
# [24] = target: Gal(b1-3)GlcNAc(b1-3)Gal(b1-4)GlcNAc
# Procedure, shortened: as §1
# [25] = target: Gal(b1-3)[Fuc(a1-4)]GlcNAc
# Procedure, shortened: as §1
# [26] = target: Gal(b1-3)[Fuc(a1-4)]GlcNAc(b1-3)Gal(b1-3)[Fuc(a1-4)]GlcNAc
# Procedure, shortened: as §1
# [27] = target: Gal(b1-3)[Fuc(a1-4)]GlcNAc(b1-3)Gal(b1-4)GlcNAc
# Procedure, shortened: as §1
binder,measurement,setting,value
B1,glycan array binding signal (z-score),[1],-0.237
same,glycan array binding signal (z-score),[2],-0.038
same,glycan array binding signal (z-score),[3],-0.444
same,glycan array binding signal (z-score),Fuc(a1-3)GlcNAc,1.09
same,glycan array binding signal (z-score),[4],0.685
same,glycan array binding signal (z-score),[5],-0.256
same,glycan array binding signal (z-score),[6],-0.598
same,glycan array binding signal (z-score),[7],-0.109
same,glycan array binding signal (z-score),[8],-0.332
same,glycan array binding signal (z-score),[9],-0.391
same,glycan array binding signal (z-score),[10],0.355
same,glycan array binding signal (z-score),[11],1.18
same,glycan array binding signal (z-score),[12],0.607
same,glycan array binding signal (z-score),[13],0.5
same,glycan array binding signal (z-score),[14],0.245
same,glycan array binding signal (z-score),[15],0.315
same,glycan array binding signal (z-score),Fuc(a1-4)GlcNAc,-0.468
same,glycan array binding signal (z-score),Fuc(b1-3)GlcNAc,-0.496
same,glycan array binding signal (z-score),Gal(a1-2)Gal,0.089
same,glycan array binding signal (z-score),Gal(a1-3)Gal,0.326
same,glycan array binding signal (z-score),Gal(a1-3)Gal(b1-3)GlcNAc,-0.393
same,glycan array binding signal (z-score),Gal(a1-3)Gal(b1-4)Glc,-0.129
same,glycan array binding signal (z-score),Gal(a1-3)Gal(b1-4)GlcNAc,-0.132
same,glycan array binding signal (z-score),[16],0.318
same,glycan array binding signal (z-score),Gal(a1-3)GalNAc,-0.284
same,glycan array binding signal (z-score),[17],-0.405
same,glycan array binding signal (z-score),Gal(a1-4)Gal(b1-4)Glc,3.58
same,glycan array binding signal (z-score),Gal(a1-4)Gal(b1-4)GlcNAc,0.01
same,glycan array binding signal (z-score),Gal(a1-4)GlcNAc,0.102
same,glycan array binding signal (z-score),Gal(a1-6)Glc,-0.497
same,glycan array binding signal (z-score),Gal(b1-2)Gal,0.166
same,glycan array binding signal (z-score),Gal(b1-3)Gal,-0.516
same,glycan array binding signal (z-score),Gal(b1-3)Gal(b1-4)GlcNAc,-0.433
same,glycan array binding signal (z-score),Gal(b1-3)GalNAc,-0.1
same,glycan array binding signal (z-score),[18],-0.12
same,glycan array binding signal (z-score),[19],-0.379
same,glycan array binding signal (z-score),[20],-0.468
same,glycan array binding signal (z-score),Gal(b1-3)GlcNAc,0.467
same,glycan array binding signal (z-score),[21],-0.203
same,glycan array binding signal (z-score),[22],-0.535
same,glycan array binding signal (z-score),[23],-0.316
same,glycan array binding signal (z-score),[24],-0.537
same,glycan array binding signal (z-score),[25],-0.509
same,glycan array binding signal (z-score),[26],-0.396
same,glycan array binding signal (z-score),[27],-0.543
